The other results are listed elsewhere or left out. Read counts after selection give these values, which scatter widely.
Tested on: SARS-CoV-2 3CLpro (nsp5)
Assay: substrate phage enrichment score (protease-eluted vs HEPES control, +1 offset) (ratio); higher = better cleaved substrate
Conditions: selection round: 4; protease elution time: 15 min
Description: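 Random heptapeptide substrate phage display (M13 pIII fusion, heptapeptide between an N-terminal biotinylated AviTag GLNDIFEAQKIEWHE and pIII; phages immobilised on streptavidin) eluted by cleavage with 50 nM protease in 20 mM HEPES at 37 °C. Selected phages were NGS sequenced, and the enrichment score is (reads in protease sample + 1)/(reads in HEPES blank-selection control + 1).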

Row | Substance | substrate phage enrichment score
1 | TQDTLTR | 0.375
2 | EVRTPDK | 1.09
3 | SRPAQVQ | > 40
4 | QSLEGIA | > 27
5 | PAESHRP | 0.163
6 | TASCRLQ | > 394
7 | PFSDILG | > 40
8 | SCCTHLQ | 29.2
9 | NGITKTH | > 24
10 | ADAAAHN | > 23
11 | PDEDAPQ | 17.5
12 | ERNATFQ | 1.88
13 | DKATNLQ | > 138
14 | QPYSLTQ | 8.19
15 | SHSQCTA | 2.33
16 | RIVLSCR | > 29
17 | VSRLQSK | > 131
18 | AQVADSR | 0.875
19 | RQVTTCS | 3.6
20 | CLRKSEN | 1
21 | DNVRENI | 0.0426
22 | NTHFTDR | > 24
23 | RESRPPR | > 29
24 | QGYCGSN | > 42

Row | Substance | substrate phage enrichment score
25 | TRTMPRL | > 46
26 | QEWGPVL | > 43
27 | YYAPSNM | > 45
28 | LRKYPQC | 2.38
29 | ECSEPSN | > 26
30 | HRGARLQ | 20
31 | TGWRYGK | 0.087
32 | PNLPTGV | > 26
33 | VPMKGIN | 0.471
34 | ATAHHHH | 0.624
35 | CRGLATL | 5.75
36 | CSAPVML | 1.44
37 | PDHGCVT | 23.2
38 | DRETMQH | 2
39 | LQHDKQR | 0.125
40 | ATLNHLE | 19
41 | ASHPWCL | 6
42 | FDRAPTV | 3.17
43 | MAPSNPS | 0.2
44 | RDAMSSR | > 28
45 | LDAAAHH | 6.33
46 | PGKTLLQ | 11
47 | QNTMPKE | 3
48 | PLFQAEF | > 43

Row | Substance | substrate phage enrichment score
49 | MRPHIII | 0.754
50 | GLTSAPY | > 27
51 | CLPSLQG | 10
52 | NQHPMFR | > 25
53 | LMYDGFR | > 22
54 | AHEGSSR | > 28
55 | ADRQNCK | 1.44
56 | RRPTSCQ | > 34
57 | CPPTKDR | 3.57
58 | HVTEPGM | > 23
59 | SLQGGSA | 0.444
60 | RSKLQCQ | > 61
61 | TTKPSAR | 1.64
62 | GLCHGQA | 1.67
63 | GWQCDLR | 1.4
64 | CTGLSKM | > 135
65 | NQPLGAG | 1.82
66 | ANDATYG | > 72
67 | RTKTQVS | > 30
68 | PIDRHWQ | 1.55
69 | QWTPYQQ | > 53
70 | HHTPPTR | > 27
71 | IPQEVNP | > 22
72 | ELSSYLQ | > 74

Row | Substance | substrate phage enrichment score
73 | APQALLQ | > 49
74 | SVSLQGG | > 25
75 | TSTWLQN | > 84
76 | FGAQPSR | 4.5
77 | SPSVSLH | > 24
78 | NRHGNYW | 10.5
79 | SNEAAHH | 14.2
80 | SPAWQTH | 3.67
81 | HQALCPV | 1.02
82 | DVPEVAL | 2.3
83 | LRSWRSN | 1.27
84 | DLSAELQ | > 65
85 | RGRLCRV | 10.5
86 | CRAAAHH | 0.818
87 | AYHPQQS | > 26
88 | GYRHGAC | 2.65
89 | LTRLQSE | 60.2
90 | KGSVVLH | > 51
91 | VSSSPVT | 0.771
92 | LKKCLVP | 2.43
93 | NCFPSER | > 26
94 | RDTRPLG | 0.333
95 | FRVVVRP | 1.38
96 | NRPSQLR | 0.867

Row | Substance | substrate phage enrichment score
97 | AQNNSHR | 2.52
98 | NCAQDNR | > 26
99 | TNKFDRN | 0.1
100 | PRNVRLQ | > 80
101 | MTTGNPV | 9.89
102 | TREESNQ | 0.837
103 | TGVTQAA | > 33
104 | KAVRCWT | > 21
105 | TECSSYG | > 26
106 | WSLLQSN | > 45
107 | ESRTCCA | 2.6
108 | KHDAAFQ | > 26
109 | MSQTSRE | > 22
110 | HCRCITS | 2.25
111 | MTPHTKQ | > 30
112 | SSLTQGV | > 43
113 | PLWSVSG | 0.375
114 | NKNSPLR | 3.5
115 | EQDGAQN | > 23
116 | PPVKNPR | 1.76
117 | SVGKLKN | 1.78
